# According to article PMC4336329 (PLoS ONE, 2015):
# The campaign covered roughly 310,000 compounds. About 2,200 (0.71%) showed an effect of 50% or more. The effect is printed as a negative number. Some of the results follow.
# Biological target: human ether-à-go-go-related gene (hERG) potassium channel (human, UniProt Q12809)
# Assay: primary screen, population patch clamp on CHO cells stably expressing hERG
# human ether-à-go-go-related gene (hERG) potassium channel, sequence (Q12809 whole entry, looked up): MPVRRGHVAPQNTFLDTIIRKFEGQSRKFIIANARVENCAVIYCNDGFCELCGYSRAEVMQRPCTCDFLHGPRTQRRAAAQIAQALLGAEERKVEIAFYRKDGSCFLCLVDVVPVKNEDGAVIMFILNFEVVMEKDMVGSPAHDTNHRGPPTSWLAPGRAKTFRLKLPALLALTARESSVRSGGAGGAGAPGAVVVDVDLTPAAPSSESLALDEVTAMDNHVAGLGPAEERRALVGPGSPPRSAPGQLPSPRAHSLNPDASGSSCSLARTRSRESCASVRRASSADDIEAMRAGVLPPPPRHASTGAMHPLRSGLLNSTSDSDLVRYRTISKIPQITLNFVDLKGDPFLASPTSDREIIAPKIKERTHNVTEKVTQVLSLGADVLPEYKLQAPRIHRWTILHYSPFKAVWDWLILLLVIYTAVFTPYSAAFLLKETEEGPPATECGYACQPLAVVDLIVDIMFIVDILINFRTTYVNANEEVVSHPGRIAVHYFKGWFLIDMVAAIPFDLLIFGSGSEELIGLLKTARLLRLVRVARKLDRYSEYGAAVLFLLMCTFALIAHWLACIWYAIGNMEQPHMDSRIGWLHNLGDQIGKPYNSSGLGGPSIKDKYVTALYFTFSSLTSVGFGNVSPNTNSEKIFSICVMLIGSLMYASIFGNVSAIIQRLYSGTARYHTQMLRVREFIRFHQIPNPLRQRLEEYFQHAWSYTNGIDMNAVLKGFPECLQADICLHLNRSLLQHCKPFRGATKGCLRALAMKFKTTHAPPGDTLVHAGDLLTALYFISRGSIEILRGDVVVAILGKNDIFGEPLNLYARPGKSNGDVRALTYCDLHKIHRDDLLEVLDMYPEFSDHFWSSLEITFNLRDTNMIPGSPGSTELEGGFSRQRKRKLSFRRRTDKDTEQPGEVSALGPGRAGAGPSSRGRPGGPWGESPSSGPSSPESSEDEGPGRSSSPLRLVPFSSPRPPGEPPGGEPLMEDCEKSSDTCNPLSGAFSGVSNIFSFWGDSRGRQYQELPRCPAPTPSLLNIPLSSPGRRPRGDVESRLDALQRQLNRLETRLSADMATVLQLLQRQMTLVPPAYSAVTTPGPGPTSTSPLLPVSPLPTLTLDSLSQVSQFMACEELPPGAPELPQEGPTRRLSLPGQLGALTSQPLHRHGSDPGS
row,Structure (SMILES),"hERG current change (%, negative = inhibition) at 1uM"
1,CC(=O)NCCOc1nc(N(C)C)nc(N(C)C)n1,19.9%
2,CCOC(=O)C(=CNc1ccc(N2CCOCC2)cc1)C(=O)OCC,12.2%
3,CCOC(=O)C1CN(S(=O)(=O)c2ccc(C)cc2)C1,8.49%
4,Nn1c(CN2CCCCC2)nc2ccccc2c1=O,2.79%
5,COc1ccc2oc(C(=O)OCC(=O)Nc3ccc(N4CCOCC4)cc3)c(C)c2c1,15.1%
6,Cc1ccc2oc(=O)n(CC(=O)N3CCOCC3)c2c1,9.29%
7,Cc1ccc(OCC(=O)NCCNC(=O)COc2ccc(C)cc2)cc1,13%
8,COc1cccc(NC(=O)NNC(=O)COc2ccc3ccccc3c2)c1,8.61%
9,COc1ccc(-n2cccc2C=O)cc1OC,8.13%
10,CCOc1ccc(-c2nnc(-c3ccc(OC)cc3)o2)cc1,3.85%
11,Cc1nc(N2CCN(C(=O)c3ccc(Cl)cc3)CC2)c(C#N)c2c1COC(C)(C)C2,-7.98%
12,CCc1cc(=O)oc2c3c(cc(OCC(=O)NCCCOC)c12)OC(C)(C)CC3,9.73%
13,Cc1ccc(/C=N/N2C(=S)SC(C)(C)C2N(O)C(=O)Nc2ccc([N+](=O)[O-])cc2)cc1 (stereo not drawn),11.4%
14,Cc1nnc(SCC(=O)NC(C)(C)C)n1C1CCCCC1,6.2%
15,CN(Cc1ccccc1)S(=O)(=O)c1ccc(OCC(=O)NCc2ccccn2)cc1,-1.65%
16,Cc1ccc(C(=O)NCCN(C)C)cc1C,14.8%
17,O=C(O)COc1ccccc1/C=N/NC(=O)CN1CCN(Cc2ccc(Cl)cc2)CC1,9.59%
18,CCOc1ccc(N(C(=O)c2cnccn2)C(C(=O)NC2CCCCC2)c2ccc(O)cc2)cc1 (stereo not drawn),12.4%
19,Cc1ccc(NC(=O)c2ccc3c(c2)N(CC(=O)NC(C)C)C(=O)C(C)(C)O3)cc1,15%

row,Structure (SMILES),"hERG current change (%, negative = inhibition) at 1uM"
1,COc1ccc(CC(=O)OCc2nnc(-c3ccccc3)o2)cc1,12.5%
2,Cc1ccccc1NP(=O)(Oc1ccccc1F)Oc1ccccc1F,13.9%
3,CCC(C)(C)C1CCc2[nH]nc(C(=O)NCCCNC(=O)OC(C)(C)C)c2C1 (stereo not drawn),11.6%
4,CCCOc1ccc(C(F)(F)F)cc1NC(=O)c1cc(C)on1,0.427%
5,CCN1CCN(c2ccc(S(=O)(=O)N3CCCCC3)cc2NC(=O)/C=C/c2ccc(F)cc2)CC1,8.36%
6,Cc1cc(C)n(-c2cc(N3CCN(C(=O)c4cccc(F)c4)CC3)ccc2[N+](=O)[O-])n1,-40.3%
7,COC(=O)c1ccccc1C(=O)N(c1ccccc1)c1ccccc1,11.2%
8,Cc1cc(OCC(=O)N(C)Cc2ccccc2)ccc1Br,16%
9,Cc1cc(C)c(C(=O)N2CCCC(CNC(=O)C3(c4ccc(Cl)cc4)CC3)C2)c(=O)[nH]1 (stereo not drawn),7.33%
10,CSc1nc(Oc2ccc3ccccc3c2)c2ccccc2n1,16%
11,CCC(C)[C@H](NC(=O)OC(C)(C)C)C(=O)N/N=C/c1cccc2nccnc12 (stereo partly drawn),-9.2%
12,O=C(O)C1CC=CCC1C(=O)Nc1cccc([N+](=O)[O-])c1 (stereo not drawn),7.21%
13,COc1ccc(-c2nn(CCC#N)cc2C=C(C#N)C#N)cc1,6.92%
14,C=CCSC1=C(C#N)C(c2ccc(C(C)C)cc2)CC(=O)N1 (stereo not drawn),3.05%
15,COC/C=C/C1=CC2=CC(=O)C(C)(OC(=O)c3cnc4ccccc4n3)C(=O)C2=CN1c1ccc(CO)cc1 (stereo not drawn),-12.3%
16,O=C(Nc1cccc(OC(=O)c2ccc(Br)o2)c1)c1ccccc1,9.2%
17,CC(Sc1nc2cc([N+](=O)[O-])ccc2n1-c1ccc(F)cc1)C(=O)NCc1ccc2c(c1)OCO2 (stereo not drawn),6.68%
18,Cc1cc(SCC(=O)N2CCC(c3noc4ccc(F)cc34)CC2)nc2ccccc12,-0.78%
19,COC(=O)Cc1c(C)nc2nc(-c3ccc(Cl)cc3)[nH]n2c1=O,6.86%

row,Structure (SMILES),"hERG current change (%, negative = inhibition) at 1uM"
1,O=C(N/N=C/c1c(O)ccc2ccccc12)c1ccc[n+](CCO)c1.[Cl-],8.18%
2,Cc1cc(NC(=O)c2cccc(COc3ccc(Br)cc3)c2)no1,4.41%
3,COC(=O)c1ccc(NC(=S)Nc2ccc3ccccc3c2)cc1,19%
4,CC(=O)Nc1ccc(C(=O)OC2CCCCC2=O)cc1 (stereo not drawn),11%
5,CC1(C)CC(=O)c2cc(NC(=O)c3ccccc3)c(=O)oc2C1,29.3%
6,CCOC(=O)N1CCN(C(=O)CCC2CCCC2)CC1,10.1%
7,Cc1ccc(S(=O)(=O)N2CC(C)N(C(=O)N3CCOCC3)C2)cc1 (stereo not drawn),8.94%
8,COc1ccc(CC(=O)Nc2ccc(OC(C)=O)cc2C(=O)O)cc1,-3.47%
9,CCOc1ccc(C(O)c2nccn2C)cc1 (stereo not drawn),13.8%
10,S=C(NNc1ccnc2cc(Cl)ccc12)Nc1ccccc1Cl,11.1%
11,Brc1ccccc1-n1nnc(-c2nccs2)n1,10.6%
12,O=C(Nc1ccc(S(=O)(=O)N2CCCC2)cc1)C1COc2ccccc2O1 (stereo not drawn),3.69%
13,C/C=C/c1ccc(OC)c(OC(C)=O)c1,5.15%
14,O=C(CCn1nnc2ccccc21)OCC(=O)c1ccc(F)cc1,2.32%
15,CCOC(=O)N1CCC(N2Cc3cccc(C(=O)Nc4ccc(OC)c(OC)c4)c3C2=O)CC1,-4.54%
16,O=C(NCc1ccco1)c1ccc(OCC2CCCO2)cc1 (stereo not drawn),-14.4%
17,Cc1oc(-c2cc3c(cc2Cl)OCO3)nc1CN1CCCC(C(=O)N2CCOCC2)C1 (stereo not drawn),5.53%
18,CCC(C)(C(=O)NC1CCCC1)N(Cc1cccs1)C(=O)Cc1cccs1 (stereo not drawn),-6.62%
19,Cn1c(=O)oc2cc(S(=O)(=O)N3CCOCC3)ccc21,9.83%
